Assay results as given in paper PMC6919601, “Identification of Plasmodium dipeptidyl aminopeptidase allosteric inhibitors by high throughput screening” (PLoS ONE, 2019).
In all, about 110,000 compounds went through this assay and about 230 (0.21%) showed an effect of 50% or more. The list shows a part of the results.

What follows are compounds tested against DPAP1 (Plasmodium falciparum, UniProt Q8IIJ9) (assay: primary screen, percent inhibition; read by cleavage of a fluorogenic dipeptide substrate; higher = more effect of the substance).
Parameters: species or system P. falciparum D10 trophozoite lysates; single well
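Also: 30 min substrate incubation versus DMSO and 10 µM JCP410 controls.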

Sequence of DPAP1 (Q8IIJ9 whole entry, looked up): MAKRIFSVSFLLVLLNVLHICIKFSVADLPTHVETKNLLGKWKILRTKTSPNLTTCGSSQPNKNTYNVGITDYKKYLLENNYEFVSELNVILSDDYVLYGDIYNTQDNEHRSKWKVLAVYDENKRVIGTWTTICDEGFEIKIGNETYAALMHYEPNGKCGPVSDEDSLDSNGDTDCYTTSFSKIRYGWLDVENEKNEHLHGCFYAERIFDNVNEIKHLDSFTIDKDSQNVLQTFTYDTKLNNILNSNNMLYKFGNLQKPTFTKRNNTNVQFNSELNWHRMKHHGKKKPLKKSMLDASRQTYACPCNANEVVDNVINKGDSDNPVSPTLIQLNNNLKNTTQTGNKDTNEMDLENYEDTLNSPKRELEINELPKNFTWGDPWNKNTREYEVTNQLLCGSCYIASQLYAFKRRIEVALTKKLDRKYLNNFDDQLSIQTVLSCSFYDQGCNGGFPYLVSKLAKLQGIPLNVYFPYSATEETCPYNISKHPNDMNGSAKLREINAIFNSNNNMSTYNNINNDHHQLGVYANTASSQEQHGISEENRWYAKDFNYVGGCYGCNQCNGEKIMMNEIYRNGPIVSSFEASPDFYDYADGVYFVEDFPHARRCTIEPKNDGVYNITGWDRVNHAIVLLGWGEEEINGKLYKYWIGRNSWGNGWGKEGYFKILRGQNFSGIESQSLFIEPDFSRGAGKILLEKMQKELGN

Going from `CN(C)CC(=O)N1c2ccccc2CCc2ccc(NC(N)=O)cc21` to `Cc1ccc(C(=O)Nc2c(C(=O)Nc3cccnc3)cnn2-c2ccccc2)cc1`, the “% Inhibition @ 10 uM” value rises from 0.937% to 3.86%.

Going from `CC(C)c1ccc(NC(=O)Nc2cccc(Cl)c2)cc1` to `O=c1cc(NCc2ccc(Cl)cc2)c2ccccc2o1`, the “% Inhibition @ 10 uM” value falls from -0.261% to -3.72%.

Compared with `Cc1cc(C(F)(F)F)c(C#N)c(SCc2ccc(Cl)nc2)n1`, `Cc1cccc(Cc2c(C)nc3c(C(=O)NCc4ccco4)cnn3c2C)c1` is lower in “% Inhibition @ 10 uM” value: 3.19% for the first, -4.06% for the second.

Compared with `COc1cccc(C2c3c(oc4ccc(F)cc4c3=O)C(=O)N2c2nc(C)c(C)s2)c1` (stereo not drawn), `COc1ccc(CNC(=O)c2oc3cc4sc(N(C)C)nc4cc3c2C)cc1` is higher in “% Inhibition @ 10 uM” value: -1.33% for the first, 6.41% for the second.

Compared with `CN(C)CCOC(=O)NC12CC3CC(CC(C3)C1)C2`, `CCN(CC)C1=CC(=O)OC12CCCCC2` is lower in “% Inhibition @ 10 uM” value: 2.58% for the first, 1.44% for the second.

Compared with `COc1ccc(CN2CCN(Cc3ccc(Cl)cc3)CC2)cc1OC`, `OC1CCCN(Cc2ccc(F)cc2)C1` (stereo not drawn) is lower in “% Inhibition @ 10 uM” value: 1.92% for the first, -2.7% for the second.

Going from `O=C1CC(c2ccccc2F)c2ccc3ccccc3c2N1` (stereo not drawn) to `C=C1c2ccc(OC)cc2NC(=O)N1c1ccccc1`, the “% Inhibition @ 10 uM” value rises from -0.436% to 3.9%.

Compared with `Cc1cc(CN(C)Cc2ccccc2)cs1`, `CCN(CC)c1ccc(Nc2nc(-c3ccccc3)cs2)cc1` is lower in “% Inhibition @ 10 uM” value: -1.57% for the first, -2.48% for the second.

First: Cc1ccc(-c2cc(C(=O)NCCN3CCOCC3)c3cc(Br)ccc3n2)cc1
Second: Cn1cc(S(=O)(=O)N2CCOCC2)cc1C(=O)NCCCc1ccccc1
The “% Inhibition @ 10 uM” value of the first is higher: 4.3% for the first, -5.01% for the second.

Going from `Cc1ccc2c(CNCc3ccco3)c(C(=O)O)n(Cc3ccc(F)cc3)c2c1` to `COc1cc(C(=O)N(Cc2ccc(C(C)(C)C)cc2)Cc2ccco2)cc(OC)c1OC`, the “% Inhibition @ 10 uM” value rises from 1.8% to 3.88%.

Compared with `Cc1ccc(C2=NS(=O)(=O)N(C)C(C(=O)Nc3cnn(Cc4ccccc4C)c3)=C2)cc1`, `O=C(NC1CCS(=O)(=O)C1)/C(NC(=O)c1ccccc1)=C(/Sc1ccccn1)c1ccccc1` (stereo not drawn) is lower in “% Inhibition @ 10 uM” value: 3.92% for the first, -5.63% for the second.

First: O=C(C1=C(O)C(=O)N(CC2CCCO2)C1c1cccs1)c1ccc2c(c1)OCCO2 (stereo not drawn)
Second: CC1CCN(S(=O)(=O)N2CCCC(C(=O)NCc3ccc4c(c3)OCO4)C2)CC1 (stereo not drawn)
The “% Inhibition @ 10 uM” value of the first is lower: -4.14% for the first, -3.12% for the second.

First: COc1cc2oc(=O)cc(C)c2cc1OCC(O)CN1CCOCC1 (stereo not drawn)
Second: CCCC[C@@H](/C=C/S(=O)(=O)c1ccccc1)NC(=O)[C@H](Cc1ccccc1)NC(=O)N1CCC(N2CCOCC2)CC1
The “% Inhibition @ 10 uM” value of the first is higher: 5.53% for the first, 0.173% for the second.

With `Nc1ccc(C(=O)/C=C/c2ccco2)cc1` the “% Inhibition @ 10 uM” value was -1.66%.
